{"source": "PubChem BioAssay AID485294", "about": "(National Center for Advancing Translational Sciences (NCATS), 2010)", "note": "“And” between values parts separate entries of the source, which are not always exact repeats. Equal values may be shown once. About 150 (0.041%) of roughly 370,000 compounds were called active. The shares of active, inactive and inconclusive entries below differ from those in the screen. Calls follow the shape of the dose curve; as a rule, active = well fitted inhibition curve with a large enough effect; inconclusive = small, poorly fitted or top-dose-only effect; inactive = flat fitted curve, though single readings scatter. A potency beside an inconclusive call is a rough fit, not a confirmed value. Potency is read from the fitted curve at half-maximal effect; tags tell the direction and shape of the fitted curve.", "data": [{"biological_target": "Beta-lactamase (Escherichia coli (strain K12)) (UniProt P00811)", "sequence (P00811 whole entry, looked up)": "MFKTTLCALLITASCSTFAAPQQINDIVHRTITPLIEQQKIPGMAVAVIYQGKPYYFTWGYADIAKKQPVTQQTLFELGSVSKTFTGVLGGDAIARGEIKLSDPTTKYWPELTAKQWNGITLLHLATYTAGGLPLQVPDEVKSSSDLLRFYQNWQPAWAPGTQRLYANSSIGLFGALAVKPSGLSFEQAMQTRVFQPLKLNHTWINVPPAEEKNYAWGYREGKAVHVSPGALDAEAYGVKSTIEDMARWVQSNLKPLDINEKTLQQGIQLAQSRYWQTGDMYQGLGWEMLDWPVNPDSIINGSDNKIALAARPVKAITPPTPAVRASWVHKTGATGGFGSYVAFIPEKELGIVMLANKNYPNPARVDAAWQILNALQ", "test": "qHTS Inhibitors of AmpC Beta-Lactamase (assay with detergent); also: nearly all actives have a fitted effect of over 25% in size;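 as to activity change, negative = inhibition: 0% = no-compound wells and -100% = no-enzyme wells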", "details": "AmpC hydrolysis of nitrocefin, absorbance 480 nm, 0.01% Triton; activity change, negative = inhibition: at 114 µM (top of the series)", "in_short": "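AmpC (5.3 nM in the dispensed reagent) in 20 mM phosphate pH 7.0 with 0.01% (detergent screen) or 0.0001% Triton X-100 was preincubated with compounds for 15 min at room temperature. Nitrocefin was then added from an 800 uM solution, and hydrolysis was followed at 480 nm.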", "values": [{"smiles": "COc1cccc(CNC(=O)C2CCN(c3nc4ccc(Cl)cc4[nH]3)CC2)c1", "activity change, negative = inhibition": "inactive: 14.4%"}, {"smiles": "CCCc1nnc(NC(=O)COC(=O)c2cc(C)nc3ccccc23)s1", "Potency": "inconclusive: 89.1 µM [inhibitor, single point]"}, {"smiles": "CCCCc1cc(=O)oc2cc(C)c3c(C)coc3c12", "activity change, negative = inhibition": "inactive: 17.5%"}, {"smiles": "CSc1ncc(Cl)c(C(=O)Nc2ccc(S(=O)(=O)N3CCC(C)CC3)cc2)n1", "activity change, negative = inhibition": "inactive: 16.6%"}, {"smiles": "c1cc2c3c(cccc3c1)NC(c1ccc3c(c1)OCO3)N2", "activity change, negative = inhibition": "inactive: -8.71%"}, {"smiles": "FC(F)(F)c1nnc(-c2ccccc2)nc1Sc1ccc(Cl)cc1", "Potency": "inconclusive: 11.2 µM [inhibitor, full curve, poor fit]"}, {"smiles": "COc1cc(NC(=O)C2CCCCC2)c2ncccc2c1", "Potency": "inconclusive: 22.4 µM [inhibitor, single point]"}, {"smiles": "Brc1ccc(Cn2c(-c3cncs3)nc3ccccc32)cc1", "Potency": "inconclusive: 56.2 µM [inhibitor, partial curve]"}, {"smiles": "Cc1cc(/C=C(\\C#N)C(=O)Nc2ccccc2)c(C)n1-c1cccnc1", "activity change, negative = inhibition": "inactive: -13.9%"}, {"smiles": "CCOc1ccc(C(OC(=O)c2ccco2)C(=O)NCc2ccc(C)cc2)cc1", "note": "(stereo not given)", "Potency": "inconclusive: 35.5 µM [inhibitor, partial curve]"}, {"smiles": "CCn1cc(Br)c(C(=O)Nc2cccc(SC)c2)n1", "activity change, negative = inhibition": "inactive: 1.01%"}, {"smiles": "O=S(=O)(N/N=C\\c1ccc2c(c1)OCO2)c1ccc(F)cc1", "Potency": "inconclusive: 1.58 µM [inhibitor, full curve, poor fit]"}, {"smiles": "COCc1cc(=O)n2[nH]c(SCc3ccccc3)nc2n1", "Potency": "inconclusive: 11.2 µM [inhibitor, full curve]"}, {"smiles": "COc1nc2ccccc2nc1N1CCN(C)CC1", "activity change, negative = inhibition": "inactive: 3.45%"}, {"smiles": "CCOc1ccc(CCNC(=O)C2CCN(c3nnc(-n4cccc4)s3)CC2)cc1", "Potency": "inconclusive: 8.91 µM [inhibitor, full curve]"}, {"smiles": "COc1ccc(NC(=S)N(CCc2c(C)[nH]c3ccccc23)Cc2ccco2)cc1", "Potency": "inconclusive: 22.4 µM [inhibitor, partial curve, poor fit]"}, {"smiles": "O=C(Nc1ccc(CSc2ccccc2)cc1)c1ccco1", "activity change, negative = inhibition": "inactive: -9.91%"}, {"smiles": "CC(=O)N(CC(C)C(=O)O)c1c(I)cc(I)c(N)c1I", "note": "(stereo not given)", "Potency": "inconclusive: 2.82 µM [inhibitor, full curve, poor fit]"}, {"smiles": "COc1ccc(CCN2CC(C(=O)NC3CCCCC3)CC2=O)cc1OC", "note": "(stereo not given)", "Potency": "inconclusive: 39.8 µM [inhibitor, single point]"}, {"smiles": "COc1cc(NC(=O)C2CC(c3c(F)cccc3Cl)=NO2)c(OC)cc1Cl", "note": "(stereo not given)", "Potency": "inconclusive: 1.12 µM [inhibitor, full curve, poor fit]"}, {"smiles": "c1cncc(-c2ccc3ncnc(NCc4ccc5c(c4)OCO5)c3c2)c1", "Potency": "inconclusive: 0.631 µM [inhibitor, full curve, poor fit]"}, {"smiles": "Cc1ccccc1NC(=O)N1C2CCCC1CC(NC(=O)C(C)(C)C)C2", "note": "(stereo not given)", "activity change, negative = inhibition": "inactive: -25.7%"}, {"smiles": "O=C(CSc1nnc(Nc2ccccc2)s1)Nc1cccc(S(=O)(=O)N2CCCCC2)c1", "Potency": "inconclusive: 31.6 µM [inhibitor, full curve, poor fit]"}, {"smiles": "Cc1cc(C)nc(NS(=O)(=O)c2ccc(NC(=O)c3ccccc3C)cc2)n1", "Potency": "inconclusive: 3.98 µM [inhibitor, full curve, poor fit]"}, {"smiles": "CCCCC1C2=C(CCCC2=O)OC2=C1C(=O)CCC2", "Potency": "inconclusive: 14.1 µM [inhibitor, partial curve]"}, {"smiles": "O=C(NCCOC(=O)C1COc2ccccc2O1)C1COc2ccccc2O1", "note": "(stereo not given)", "Potency": "inconclusive: 100 µM [inhibitor, single point]"}, {"smiles": "O=C(Nc1ccccc1)N1CCC(c2nc(-c3ccc(S(=O)(=O)N4CCOCC4)cc3)no2)CC1", "Potency": "inconclusive: 22.4 µM [inhibitor, partial curve]"}, {"smiles": "O=C(NCCN1CCCC1)C1CCC(=O)N(CCCN2CCOCC2)C1", "note": "(stereo not given)", "activity change, negative = inhibition": "inactive: -4.37%"}, {"smiles": "O=C1/C(=C/c2cccc([N+](=O)[O-])c2)CCc2ccccc21", "Potency": "inconclusive: 11.2 µM [inhibitor, full curve]"}, {"smiles": "Cc1ccc(SCc2cc(=O)[nH]c(/N=C(\\N)Nc3cccc4ccccc34)n2)cc1", "Potency": "inconclusive: 89.1 µM [inhibitor, single point]"}, {"smiles": "Cc1ccc2c(=O)cc(C(=O)Nc3sc4c(c3C(=O)NCc3ccco3)CCC4)oc2c1", "activity change, negative = inhibition": "inactive: 23.4%"}, {"smiles": "COc1ccc(-c2csc3ncnc(N4CCN(S(=O)(=O)c5ccc(C)cc5)CC4)c23)cc1", "Potency": "inconclusive: 25.1 µM [inhibitor, full curve, poor fit]"}, {"smiles": "O=C(Nc1nc2ccc(Cl)cc2s1)c1ccc(N2CCCCC2)c([N+](=O)[O-])c1", "Potency": "inconclusive: 0.562 µM [inhibitor, full curve, poor fit]"}, {"smiles": "Cc1ccc(NC(=O)c2cc(NC(=O)C3CC=CCC3C(=O)O)ccc2N2CCOCC2)cc1", "note": "(stereo not given)", "Potency": "inconclusive: 20 µM [inhibitor, partial curve]"}, {"smiles": "O=C(NC1CCCCCCC1)C1CCC(CNc2c(N3CCCC3)c(=O)c2=O)CC1", "note": "(stereo not given)", "Potency": "inconclusive: 63.1 µM [inhibitor, partial curve, poor fit]"}, {"smiles": "O=C(Cc1cccs1)NC1CCCC1", "activity change, negative = inhibition": "inactive: 2.52%"}, {"smiles": "COc1ccc(OC(C)C(=O)N2CC(C)OC(C)C2)cc1", "note": "(stereo not given)", "Potency": "inconclusive: 56.2 µM [inhibitor, partial curve]"}, {"smiles": "Cn1c(C(C#N)C2=C(Cl)C(=O)N(c3ccccc3)C2=O)nc2ccccc21", "note": "(stereo not given)", "Potency": "inconclusive: 0.631 µM [inhibitor, full curve, poor fit]"}, {"smiles": "CCOC(=O)c1ccc(N2C(=O)c3[nH]nc(-c4ccc(C)cc4)c3C2c2ccc(O)c(OCC)c2)cc1", "note": "(stereo not given)", "activity change, negative = inhibition": "inactive: -3.06%"}, {"smiles": "Cc1ccc(-n2c(SCC(=O)Nc3ncc(Cl)cc3Cl)nc3ccccc32)cc1", "Potency": "inconclusive: 10 µM [inhibitor, partial curve]"}, {"smiles": "O=C(N[C@@H]1C[C@H]2CC[C@@H]1C2)c1ccco1", "Potency": "inconclusive: 1.78 µM [inhibitor, full curve, poor fit]"}, {"smiles": "CCOC(=O)C1=C(COC(=O)CCOc2cc(C)ccc2C)NC(=O)NC1C", "note": "(stereo not given)", "Potency": "inconclusive: 0.708 µM [inhibitor, full curve, poor fit]"}, {"smiles": "O=C(c1ccc(CN2CCc3ccccc3C2)cc1)N1CCCCC1", "Potency": "inconclusive: 25.1 µM [inhibitor, full curve, poor fit]"}, {"smiles": "CCN(CC)C(=O)CSc1nnc(-c2cc(OC)cc(OC)c2)o1", "Potency": "inconclusive: 22.4 µM [inhibitor, full curve]"}, {"smiles": "Cc1oc2c(C)c3oc(=O)c(CCC(=O)NCCCN4CCCC4=O)c(C)c3cc2c1C", "Potency": "inconclusive: 2.82 µM [inhibitor, full curve, poor fit]"}, {"smiles": "CC1C(=O)Nc2ccc(S(=O)(=O)N3CCN(c4cccc(C(F)(F)F)c4)CC3)cc2NC1=O", "note": "(stereo not given)", "Potency": "inconclusive: 63.1 µM [inhibitor, partial curve, poor fit]"}, {"smiles": "Cc1ccccc1Nc1nc2ccccc2n1C(C)C", "Potency": "inconclusive: 2.51 µM [inhibitor, full curve]"}, {"smiles": "Cc1cccc(OCCSc2nc3ccccc3n2CC(=O)N2CCOCC2)c1", "activity change, negative = inhibition": "inactive: 8.19%"}, {"smiles": "Cc1cccc(C(=O)CC(=O)c2cc(Cl)ccc2O)c1", "activity change, negative = inhibition": "inactive: -6.8%"}, {"smiles": "Cc1cc(C)n2nc(SCC(=O)N(C)c3c(N)n(Cc4ccccc4)c(=O)[nH]c3=O)nc2n1", "Potency": "inconclusive: 50.1 µM [inhibitor, partial curve]"}, {"smiles": "COc1ccccc1CNC(=O)c1ccc(CS(=O)(=O)c2c(Cl)cccc2Cl)o1", "Potency": "inconclusive: 100 µM [inhibitor, single point]"}, {"smiles": "CCOC(=O)c1cc(OC(=O)c2cccs2)n(-c2ccccc2)n1", "Potency": "inconclusive: 100 µM [inhibitor, single point]"}, {"smiles": "O=C(CC1OC(=O)c2ccccc21)Nc1ccc(Cl)c(S(=O)(=O)N2CCCCC2)c1", "note": "(stereo not given)", "Potency": "inconclusive: 2.51 µM [inhibitor, full curve, poor fit]"}, {"smiles": "CCOC(=O)N1CCC(Nc2nc(OC)nc(OC)n2)CC1", "Potency": "inconclusive: 0.631 µM [inhibitor, full curve, poor fit]"}, {"smiles": "O=[N+]([O-])c1c(Nc2ccccc2O)cc(N2CCOCC2)c2nonc12", "Potency": "inconclusive: 25.1 µM [inhibitor, full curve, poor fit]"}, {"smiles": "COC(=O)c1ccc(NC(=O)CC2C(=O)N(c3cccc(OC)c3)C(=O)N2Cc2ccco2)cc1", "note": "(stereo not given)", "Potency": "inconclusive: 28.2 µM [inhibitor, single point]"}, {"smiles": "Cc1c(C(=O)Nc2ccc(F)cc2)cn2c(nc3ccccc32)c1C#N", "Potency": "inconclusive: 89.1 µM [inhibitor, partial curve]"}, {"smiles": "Cc1ccccc1NC(=O)C(C)OC(=O)CCC(=O)N(CC(C)C)c1c(N)n(CC(C)C)c(=O)[nH]c1=O", "note": "(stereo not given)", "Potency": "inconclusive: 3.16 µM [inhibitor, full curve, poor fit]"}, {"smiles": "COc1cccc(NC(=O)N2CCCC2C(=O)NCC(C)C)c1", "note": "(stereo not given)", "Potency": "inconclusive: 11.2 µM [inhibitor, full curve, poor fit]"}, {"smiles": "COC(=O)c1ccc(N2NC(=O)/C(=C/c3ccc(OC)c(OC)c3)C2=O)cc1", "Potency": "inconclusive: 10 µM [inhibitor, full curve, poor fit]"}, {"smiles": "COc1ccc(NC(=O)c2cccc(N3CCCS3(=O)=O)c2)cc1OC", "activity change, negative = inhibition": "inactive: 3.34%"}, {"smiles": "COC(=O)c1ccc(NC(=O)CCS(=O)(=O)c2ccc(Br)s2)cc1", "Potency": "inactive and inconclusive: 28.2 µM [inhibitor, full curve, poor fit]"}, {"smiles": "Cc1nc(N2CCCC2)ncc1C(=O)NCc1cccc(Cl)c1", "activity change, negative = inhibition": "inactive: -5.33%"}, {"smiles": "O=C(Nc1ccccc1)/C(=C/c1ccccc1)NC(=O)c1ccco1", "Potency": "inconclusive: 7.94 µM [inhibitor, full curve, poor fit]"}, {"smiles": "O=S1(=O)CCC(NS(=O)(=O)c2ccc3ccccc3c2)C1", "note": "(stereo not given)", "Potency": "inconclusive: 5.62 µM [inhibitor, full curve, poor fit]"}]}]}
